Results: PubChem BioAssay AID686979 (National Center for Advancing Translational Sciences (NCATS), 2013)
In all, about 420,000 compounds went through this assay and about 50,000 (12%) were called active. This list was built around the results that the source calls inconclusive (neither active nor inactive); the mix of calls is not that of the screen. Calls follow the shape of the dose curve; as a rule, active = well fitted inhibition curve with a large enough effect; inconclusive = small, poorly fitted or top-dose-only effect; inactive = flat fitted curve, though single readings scatter. No potency is given beside an inconclusive call; the fits are too rough.

Assay: qHTS for Inhibitors of human tyrosyl-DNA phosphodiesterase 1 (TDP1): qHTS in cells in presence of CPT; also: nearly all actives have a fitted effect of over 55% in size
Settings: chicken DT40 Tdp1-/-;hTDP1 cells + 20 nM CPT, ATP luminescence, 48 h; series mostly up to 46.2 µM
Outline: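 Cell growth measured by CellTiter-Glo luminescence after a minimum 48 h, 37 C compound exposure with 20 nM CPT in Tdp1-knockout DT40 cells stably expressing hTDP1, seeded 400/well; qHTS titration format.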
Potency is read from the fitted curve at half-maximal effect; tags tell the direction and shape of the fitted curve.

SMILES	Potency
CCOc1ccccc1NC(=O)CSc1nc2c(oc3ccccc32)c(=O)n1-c1ccc(C)c(C)c1	inconclusive [inhibitor, single point]
COc1ccc(-c2c(C(=O)c3ccccc3)[nH]c(N)c2C(=O)NCc2ccccc2)cc1OC	inconclusive [inhibitor, partial curve]
O=C1N(Cc2cccc(Cl)c2)C[C@@H]2C[C@@H](c3c[nH]c4ccccc34)N3CCC[C@@]123	inconclusive [inhibitor, single point]
S=C(NCCc1ccc(Cl)cc1)Nc1ccc(Cl)cc1Cl	inconclusive [inhibitor, single point]
CCS(=O)(=O)N1CCC(C(=O)NC2CCCCC2)CC1	inactive
Cc1ccccc1COc1cccn2c(N(C)C(=O)CCC3CCCC3)c(C)nc12	inconclusive [inhibitor, single point]
Cc1cccn2c(=O)c3cc(C#N)c(=N)n(CCCN4CCOCC4)c3nc12	inconclusive [inhibitor, single point]
Cc1ccc(Nc2c(-c3c[nH]c4ccccc34)nc3cc(C)ccn23)cc1	active: 23.1 µM
CCc1ccc(OCc2n[nH]c(=S)n2C(C)CCCC(C)C)cc1 (stereo not drawn)	inconclusive [inhibitor, single point]
Cc1ccc2cc(C=C(C#N)C#N)c(N3CCCCC3)nc2c1	inconclusive [inhibitor, single point]
COc1cc2c(cc1OC)CN(C(=O)Cn1ccccc1=O)CC2	inactive
C=C1C=C(C)n2ncc(C(=O)Nc3ccc(NC(C)=O)c(Cl)c3)c2N1	inconclusive [inhibitor, single point]
COc1ccc(C(=O)NCC(c2cccnc2)N2CCc3ccccc32)cc1 (stereo not drawn)	active: 9.2 µM
Cc1ccc(Oc2c(C(F)(F)F)oc3c(CN4CCCCC4C)c(O)ccc3c2=O)cc1 (stereo not drawn)	inconclusive [inhibitor, single point]
Cc1ccc(-c2ccc(/C=N/NC(=O)Cc3nnc(N)s3)o2)cc1Cl	inconclusive [inhibitor, single point]
Cn1c(C=O)c(C#Cc2ccccc2)c2ccccc21	inconclusive [inhibitor, single point]
O=C(NCC(c1ccco1)N1CCN(c2ccc(F)cc2)CC1)c1ccco1 (stereo not drawn)	inconclusive [inhibitor, single point]
COc1ccc(-c2nn3c(=O)cc(CN4CCN(C(=O)c5ccc(C(C)(C)C)cc5)CC4)nc3s2)cc1	active: 3.26 µM
